Reference: PubChem BioAssay AID624296 (National Center for Advancing Translational Sciences (NCATS), 2012)
About 9,900 (2.8%) of roughly 350,000 compounds were called active. This list was built around the results that the source calls inconclusive (neither active nor inactive); the mix of calls is not that of the screen. Calls follow the shape of the dose curve; as a rule, active = well fitted activation curve with a large enough effect; inconclusive = small, poorly fitted or top-dose-only effect; inactive = no such curve, though single readings can be large or run the other way. No potency is given beside an inconclusive call; the fits are too rough.

Assay: A quantitative high throughput screen for small molecules that induce DNA re-replication in MCF 10a normal breast cells. Also: nearly all actives have a fitted effect of over 50% in size.
Details: MCF 10A DNA re-replication, Hoechst nuclear intensity, 48 h; series mostly up to 46.1 µM
Potency is read from the fitted curve at half-maximal effect; tags tell the direction and shape of the fitted curve.

Question: Which Potency does the source give for `COC(=O)c1ccc(C2/C(=C(/O)c3ccc(OC(C)C)cc3)C(=O)C(=O)N2c2cc(C)on2)cc1` (stereo not drawn) here?
Answer: inconclusive [activator, single point]

Question: With `c1coc(CN(Cc2ccco2)c2ncnc3c2oc2ccccc23)c1` as the compound, how does the Potency read?
Answer: inconclusive [activator, single point]

Question: Which Potency does the source give for `Cc1cc(C2C(C#N)=C(N)OC3=C2C(=O)CC(C)(C)C3)c(C)s1` (stereo not drawn) here?
Answer: inconclusive [activator, full curve, poor fit]

Question: For `O=c1ccc(-c2nc3cc(Cl)ccc3n2Cc2ccccc2)c[nH]1`, which Potency is on record?
Answer: inconclusive [activator, partial curve, poor fit]

Question: Which Potency does the source give for `Cc1nn(-c2ccccc2)c(Cl)c1C(=O)Nc1ccccc1` here?
Answer: inactive

Question: For `O=C(CN1C(=O)c2ccccc2C1=O)Nc1ccccc1N1CCOCC1`, which Potency is on record?
Answer: inconclusive [activator, single point]

Question: For `CN(C)S(=O)(=O)c1ccc(N2CCN(S(=O)(=O)c3ccc(F)cc3)CC2)c(Cl)c1`, which Potency is on record?
Answer: inactive

Question: With `Cc1nc2ccc(NC(=O)Cc3cccc(F)c3)cc2s1` as the compound, how does the Potency read?
Answer: inactive

Question: For `COC(=O)[C@H](CC(C)C)N(Cc1ccccc1)S(=O)(=O)N(Cc1ccccc1)[C@@H](CC(C)C)C(=O)OC`, which Potency is on record?
Answer: inconclusive [activator, partial curve, poor fit]

Question: With `O=C1CC(c2ccc(F)cc2)Cc2nc(N3CCN(c4ccccc4)CC3)ncc21` (stereo not drawn) as the compound, how does the Potency read?
Answer: inconclusive [activator, full curve, poor fit]

Question: With `CCOC(=O)C1=C(C)NC(C)=C(C(=O)OCC)C1c1ccc(O)cc1` as the compound, how does the Potency read?
Answer: inactive

Question: Which Potency does the source give for `CC1CCN(C(=O)C2CCN(S(=O)(=O)c3cccc4nonc34)CC2)CC1` here?
Answer: inconclusive [activator, partial curve, poor fit]

Question: For `Cc1ccc(C(=O)Nc2ccc3c(c2)ncn3C)cc1`, which Potency is on record?
Answer: inconclusive [activator, single point]

Question: With `O=C(O)c1ccc(S(=O)(=O)N2CCSCC2)cc1` as the compound, how does the Potency read?
Answer: inactive

Question: For `COc1ccc(-c2noc(CNC(=O)CCN3C(=O)[C@H]4CC=CC[C@H]4C3=O)n2)cc1`, which Potency is on record?
Answer: inactive

Question: Which Potency does the source give for `CCC(=O)N1CCc2cc(S(=O)(=O)CCC(=O)N3CCN(c4ccc(C(C)=O)cc4)CC3)ccc21` here?
Answer: inactive

Question: For `CSCCC(C(=O)OC1CCOC1=O)N1C(=O)c2ccccc2C1=O` (stereo not drawn), which Potency is on record?
Answer: inconclusive [activator, single point]

Question: With `CC(C)(CN1CCCC1)NS(=O)(=O)c1ccc(Cl)cc1` as the compound, how does the Potency read?
Answer: inactive

Question: For `CCOC(=O)/C(C#N)=N/Nc1c(C)n(C)n(-c2ccccc2)c1=O`, which Potency is on record?
Answer: inactive

Question: Which Potency does the source give for `COCCNCCCOc1ccc(C(C)(C)c2ccccc2)cc1` here?
Answer: active: 20.6 µM

Question: With `O=C(OCn1ncc(Cl)c(Cl)c1=O)c1ccccc1Cl` as the compound, how does the Potency read?
Answer: active: 5.8 µM

Question: Which Potency does the source give for `COc1ccccc1Nc1nc(NCc2ccco2)c2ccccc2n1` here?
Answer: active: 23.1 µM

Question: For `O=C(Cn1cnc2c(nnn2Cc2ccc(Cl)cc2)c1=O)N1CCCc2ccccc21`, which Potency is on record?
Answer: inactive

Question: With `CC1CCN(c2nc3c(c(=O)n(C)c(=O)n3C)n2Cc2ccccc2)CC1` as the compound, how does the Potency read?
Answer: inactive

Question: With `CCOC(=O)c1c(NC(=O)/C=C\C(=O)O)sc(C)c1-c1ccccc1` as the compound, how does the Potency read?
Answer: active: 20.6 µM

Question: With `Cn1ncc(Cl)c1C(=O)N1CCN(C23CC4CC(CC(C4)C2)C3)CC1` as the compound, how does the Potency read?
Answer: inconclusive [activator, full curve, poor fit]

Question: For `Cc1ccc(NC(=O)CCC(=O)c2cccs2)c(Br)c1`, which Potency is on record?
Answer: inactive

Question: Which Potency does the source give for `Cc1cccc(-c2nc(CS(=O)CC(=O)NC3CCCC(C)C3C)c(C)o2)c1` (stereo not drawn) here?
Answer: inactive

Question: For `N/C(Cc1ccc([N+](=O)[O-])cc1)=N\OC(=O)c1cccc(Br)c1`, which Potency is on record?
Answer: inconclusive [activator, partial curve, poor fit]

Question: With `Oc1ccccc1C1=NN(c2ccccc2)C(c2ccccc2)C1` (stereo not drawn) as the compound, how does the Potency read?
Answer: inconclusive [activator, partial curve, poor fit]

Question: Which Potency does the source give for `CCOCCn1ccc2c(OCC(=O)Nc3cc(OC)ccc3OC)cccc2c1=O` here?
Answer: inconclusive [activator, single point]

Question: For `CCOC(=O)c1cnc2c(-c3ccccc3)cnn2c1N`, which Potency is on record?
Answer: inactive

Question: For `CCOC(=O)c1ccc(-c2c(C)cc3oc(=O)cc(-c4ccccc4)c3c2C)cc1`, which Potency is on record?
Answer: inconclusive [activator, full curve]

Question: Which Potency does the source give for `COc1ccc2sc(N(CCCN(C)C)C(=O)c3ccc(C(=O)c4ccccc4)cc3)nc2c1` here?
Answer: inconclusive [activator, partial curve, poor fit]

Question: Which Potency does the source give for `COc1cc(OC)c2c(-c3cccc(-c4cccc(N)c4)c3)cc(=O)oc2c1` here?
Answer: inconclusive [activator, single point]

Question: Which Potency does the source give for `Cc1ccc(C(=O)NCCc2ccccc2)cc1S(=O)(=O)N1CCOCC1` here?
Answer: inactive

Question: Which Potency does the source give for `CC(C)(C)c1ccc(C(=O)N2CCN(CCNC(=O)C(=O)NCc3ccc(Cl)cc3)CC2)cc1` here?
Answer: inconclusive [activator, partial curve, poor fit]

Question: Which Potency does the source give for `CCOC(=O)c1c(-c2ccc(C)cc2)csc1NC(=O)CCSc1nnc2ccccn12` here?
Answer: inconclusive [activator, full curve]

Question: For `C=C1/C=C(\C)C(C)(O)CC(O)CC(=O)C(O)C(O)C(C)CC(C)OC(=O)/C(C)=C/CC/C=C/C(OC)C(O)CC(C)C1` (stereo not drawn), which Potency is on record?
Answer: inconclusive [activator, single point]

Question: With `Cc1ccc2c(c1)c1ncnc(N3CCN(c4ccccc4)CC3)c1n2C` as the compound, how does the Potency read?
Answer: inconclusive [activator, full curve, poor fit]

Question: For `c1ccc(-c2cc(-c3ccc(N4CCOCC4)cc3)nc3ccccc23)cc1`, which Potency is on record?
Answer: inconclusive [activator, single point]

Question: For `CCNC(=O)COC(=O)COc1ccc(Cl)cc1C`, which Potency is on record?
Answer: inconclusive [activator, partial curve, poor fit]

Question: For `Cc1sc2ncnc(N3CCC(C(=O)NNC(=O)COc4ccc(Cl)cc4)CC3)c2c1C`, which Potency is on record?
Answer: inconclusive [activator, single point]

Question: With `OCCCCc1nccc2c1[nH]c1ccccc12` as the compound, how does the Potency read?
Answer: inactive

Question: With `Cc1nn(-c2cccc(Cl)c2)c2c1C(c1ccncc1)C(C#N)=C(N)O2` (stereo not drawn) as the compound, how does the Potency read?
Answer: inconclusive [activator, single point]

Question: With `COc1ccccc1CNC(=O)c1ccc2nc3[nH]c4ccccc4c3nc2c1` as the compound, how does the Potency read?
Answer: active: 18.4 µM

Question: For `O=C(c1ccc(Cl)c(S(=O)(=O)N2CCCCCC2)c1)N1CCCCC1`, which Potency is on record?
Answer: inactive

Question: With `COc1ccc(CC(=O)n2[nH]c(=O)ccc2=O)cc1OC` as the compound, how does the Potency read?
Answer: inconclusive [activator, single point]

Question: For `O=C(c1cc(COc2ccc(F)cc2Cl)on1)N1CCC(c2ccncc2)CC1`, which Potency is on record?
Answer: inconclusive [activator, partial curve]

Question: With `CC(=O)OCC(=O)Nc1c(C)cccc1C` as the compound, how does the Potency read?
Answer: inconclusive [activator, single point]

Question: Which Potency does the source give for `Cc1ccc(-c2nc3ccccc3s2)cc1S(=O)(=O)N1CCCC1` here?
Answer: inconclusive [activator, single point]

Question: With `CCOC(=O)c1c(NC(=O)c2cccc(N3C(=O)CCC3=O)c2)sc2c1CCN(CC)C2` as the compound, how does the Potency read?
Answer: inactive

Question: Which Potency does the source give for `CSc1cccc(CN2CCC(CO)(Cc3cccc(C(F)(F)F)c3)CC2)c1` here?
Answer: inconclusive [activator, single point]

Question: Which Potency does the source give for `COc1ccc(-c2cc(C(=O)Nc3ccc(C(N)=O)cc3)c3ccccc3n2)cc1OC` here?
Answer: inconclusive [activator, partial curve, poor fit]

Question: Which Potency does the source give for `Cn1c(N)c(C(=O)COC(=O)CCc2nc3ccccc3s2)c(=O)n(C)c1=O` here?
Answer: inactive

Question: For `CC(=O)c1ccc(OCCCC(=O)OCC(=O)N2CCN(S(=O)(=O)c3ccc(C)cc3C)CC2)cc1`, which Potency is on record?
Answer: inactive

Question: For `CC[C@H](CO)Nc1nc(Nc2cccc(Cl)c2)c2ncn(C(C)C)c2n1`, which Potency is on record?
Answer: inactive

Question: With `O=S(=O)(Nc1ccc(-n2cccc2)cc1)c1ccc(Cl)c(Cl)c1` as the compound, how does the Potency read?
Answer: inconclusive [activator, single point]

Question: For `ClCC1NCC(c2ccccc2Cl)c2c1[nH]c1ccccc21` (stereo not drawn), which Potency is on record?
Answer: active: 3.66 µM

Question: Which Potency does the source give for `O=C(c1ccc(S(=O)(=O)Cc2cc(F)ccc2F)c([N+](=O)[O-])c1)N1CCCCC1` here?
Answer: inactive

Question: For `N#CCSc1nc2sc3c(c2c(=O)n1C1CCCCC1)CCCC3`, which Potency is on record?
Answer: inconclusive [activator, partial curve, poor fit]

Question: With `O=C(Nc1ccc(N2CCCCC2)c(Cl)c1)c1ccc2c(c1)OCCO2` as the compound, how does the Potency read?
Answer: inconclusive [activator, single point]

Question: Which Potency does the source give for `CC12CCC(=O)C=C1CCC1C2CCC2(C)C1CC1C3C(=O)N(Cc4ccccc4)C(=O)C3CC(=O)C12` (stereo not drawn) here?
Answer: inconclusive [activator, single point]

Question: With `CC1=Nc2ccc(C)c3nc(C)cc(c23)N1c1ccc(C)cc1` as the compound, how does the Potency read?
Answer: inconclusive [activator, single point]

Question: Which Potency does the source give for `CCOC(=O)c1c(NS(=O)(=O)Cc2ccccc2)sc2c1CCCC2` here?
Answer: inconclusive [activator, single point]

Question: With `CCOc1cccc(NC(=O)C2CC(=O)N(C)C2)c1` (stereo not drawn) as the compound, how does the Potency read?
Answer: inconclusive [activator, partial curve, poor fit]

Question: Which Potency does the source give for `COc1cccc(-c2cc(C(=O)Nc3nc4ccccc4s3)c3ccccc3n2)c1` here?
Answer: inactive

Question: Which Potency does the source give for `CCC1=C(OC(=O)N(CC)CC)N2C(=O)OC(=NCC(=O)OC)[C@]2(Cc2ccccc2)[C@H]2C1=CC[C@H]1C(=O)N(c3ccccc3)C(=O)[C@H]12` here?
Answer: inconclusive [activator, partial curve, poor fit]
